# Hit rate of the full screen: of about 310,000 compounds, about 14,000 (4.5%) showed an effect of 50% or more. The effect is printed as a negative number. This is one part of the list.
# Target: human ether-à-go-go-related gene (hERG) potassium channel (human, UniProt Q12809)
# Assay: primary screen, population patch clamp on CHO cells stably expressing hERG
# 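Further: peak tail current of the secondary pulse compared with the same well before compound.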
# Chain of human ether-à-go-go-related gene (hERG) potassium channel (Q12809 whole entry, looked up): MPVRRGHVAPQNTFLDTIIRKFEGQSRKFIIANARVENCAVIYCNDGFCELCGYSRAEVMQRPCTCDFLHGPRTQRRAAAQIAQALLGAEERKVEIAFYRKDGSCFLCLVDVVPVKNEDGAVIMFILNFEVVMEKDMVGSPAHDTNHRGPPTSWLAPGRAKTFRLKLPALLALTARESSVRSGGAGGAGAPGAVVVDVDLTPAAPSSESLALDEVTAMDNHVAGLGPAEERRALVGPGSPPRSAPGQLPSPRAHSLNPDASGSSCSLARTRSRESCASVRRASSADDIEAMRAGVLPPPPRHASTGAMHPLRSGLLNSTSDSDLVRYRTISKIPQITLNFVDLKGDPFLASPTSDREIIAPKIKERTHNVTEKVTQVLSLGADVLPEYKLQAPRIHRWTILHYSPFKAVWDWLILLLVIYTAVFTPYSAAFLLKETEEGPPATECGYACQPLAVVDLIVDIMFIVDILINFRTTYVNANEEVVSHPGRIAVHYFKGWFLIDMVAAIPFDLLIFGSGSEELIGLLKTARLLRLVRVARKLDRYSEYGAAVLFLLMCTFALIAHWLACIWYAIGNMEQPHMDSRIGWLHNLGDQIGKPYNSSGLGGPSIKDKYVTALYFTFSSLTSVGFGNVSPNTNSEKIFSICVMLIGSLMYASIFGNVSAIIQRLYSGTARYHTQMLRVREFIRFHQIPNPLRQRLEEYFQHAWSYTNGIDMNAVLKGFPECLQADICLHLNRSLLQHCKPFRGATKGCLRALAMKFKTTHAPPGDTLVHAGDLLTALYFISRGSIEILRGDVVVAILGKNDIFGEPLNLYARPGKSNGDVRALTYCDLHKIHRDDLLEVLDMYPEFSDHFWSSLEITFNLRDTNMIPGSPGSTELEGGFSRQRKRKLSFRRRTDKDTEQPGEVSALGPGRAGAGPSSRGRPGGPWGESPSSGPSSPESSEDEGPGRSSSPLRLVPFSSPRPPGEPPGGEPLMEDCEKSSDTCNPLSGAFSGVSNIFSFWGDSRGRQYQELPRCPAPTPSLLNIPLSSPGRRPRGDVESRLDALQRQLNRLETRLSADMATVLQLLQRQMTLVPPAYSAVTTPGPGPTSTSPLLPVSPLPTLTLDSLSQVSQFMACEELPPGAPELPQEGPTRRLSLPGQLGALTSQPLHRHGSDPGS
row,SMILES,"hERG current change (%, negative = inhibition) at 10uM"
1,CCOC(=O)C(=O)c1c(-c2ccccc2)nc2ccccn12,1.18%
2,O=C(NNc1cccc(Cl)n1)c1ccccc1CC[N+](=O)[O-],15%
3,CCOc1ccc(C(=O)CSc2nnc(C3CC3)n2C)cc1,5.81%
4,O=C(COC(=O)C1(c2ccc(Cl)cc2)CCCC1)N1CCc2ccccc21,-1.16%
5,C(#CCN1CCOCC1)COCCOC(c1ccccc1)c1ccccc1,7.15%
6,CCOC(=O)c1nnn(-c2ccccc2C#N)c1C,-0.0597%
7,CCOC(=O)C1NN=C(C(=O)c2ccccc2)C1c1ccc(OC)cc1 (centres unmarked),-9%
8,Cc1ccc(CS(=O)(=O)Cc2ccc(C(=O)NC3CCCCCC3)o2)cc1,0.299%
9,Cc1ccccc1C(=O)Nc1c(C(=O)N(CCN(C)C)Cc2ccco2)oc2ccccc12,-79.7%
10,Cc1cccc(-c2nn(-c3ccccc3)cc2C(=O)NCC(c2cccs2)N2CCOCC2)c1 (centres unmarked),-4.33%
11,O=C(Nc1ccccc1O)c1csc2c1CCCC2,13.7%
12,O=C1NC2(CCCCCC2)C(=O)N1Cc1ccccc1,-7.82%
13,CCOc1ccccc1NC(=O)COC(=O)c1cc[n+]([O-])cc1,12.3%
14,O=C(CN(C(=O)c1csnn1)c1ccc(Cl)cc1)NC1CCCC1,-4.76%
15,CCN(C(=O)C1CC1)C1CCS(=O)(=O)C1 (centres unmarked),11.6%
16,COc1cc2c3c(c1)c(N=NC(N)=S)c(O)n3C(C)(C)C=C2C,27.3%
17,CC(C)(C)OC(=O)NCCc1nnc(SCC(=O)Nc2cccc(Cl)c2)o1,6.91%
18,S=c1[nH]c2ccccc2n2c(=S)[nH]nc12,5.26%
19,Cc1nnc(NC(=O)C2CCCN(S(=O)(=O)c3ccccc3C(F)(F)F)C2)s1 (centres unmarked),-8.84%
20,CC12CCC(=O)N1C(C(=O)O)Cc1c2[nH]c2ccccc12 (centres unmarked),14.3%
21,CCOc1ccc(-c2cc(C(=O)N3CCN(C)CC3)c3ccccc3n2)cc1,-0.0962%
22,CCC(=O)OCCNc1cc(Sc2nc3ccccc3s2)c2nonc2c1[N+](=O)[O-],7.77%

row,SMILES,"hERG current change (%, negative = inhibition) at 10uM"
1,O=c1c2ccccc2nc(SCc2ccncc2)n1CC1CCCO1 (centres unmarked),-54%
2,COc1cccc(-c2cc(C(F)(F)F)c3c(N)c(C#N)sc3n2)c1,6.42%
3,Cc1cnc(C(=O)OCC(=O)c2ccc[nH]2)cn1,24%
4,Cc1ccc(N(CC(O)CN2CCCCC2)S(=O)(=O)c2ccccc2)cc1 (centres unmarked),-68%
5,COc1ccc(/C=N/n2c(-c3ccccc3)n[nH]c2=S)cc1,-2.52%
6,C=CCN(C(=O)CN1CCOCC1)c1nc(C)c(-c2ccccc2)s1,-0.582%
7,C/C=C\C=C/C(=O)Nc1cccc(C2=NOC3(C2)C[C@@H](C(N)=O)N(C(=O)C2(C)CC2)C3)c1 (some centres unmarked),5.05%
8,O=C(NNC(=O)c1ccccc1F)c1ccc(Cl)c(S(=O)(=O)N2CCOCC2)c1,6.04%
9,Cc1cc(C)c(S(=O)(=O)/N=C2/C=C(Sc3ncn[nH]3)C(=O)c3ccccc32)cc1C,18.2%
10,Cc1ccc(-c2nnc3ccc(SCC(=O)N4CCCc5ccccc54)nn23)cc1,-12.5%
11,Cc1ccc(N(CC(=O)NCc2ccccc2)C(=O)CCC(=O)Nc2ccccn2)c(C)c1,-16.9%
12,Cc1nc2ccc(S(=O)(=O)NCC(=O)Nc3cccc(F)c3)cc2s1,14.5%
13,Cn1nnnc1SCC(=O)N1CCc2ccccc2C1,0.197%
14,COCC(=O)N1CCN(c2cccc(C(F)(F)F)c2)CC1.Cl,3.38%
15,CCCCn1c(Cn2nc(C(=O)O)c3ccccc3c2=O)nc2cc(S(N)(=O)=O)ccc21,4.84%
16,O=c1c(/C=N/OCc2ccc(Cl)cc2Cl)c[nH]n1-c1cccc(Cl)n1,18.7%
17,CN1CCN(c2c(N)c(=O)oc3ccccc23)CC1,-45.2%
18,CCOC(=O)c1cnn(-c2ccccc2)c1-n1cccc1C(=O)C(=O)N(CC)CC,-2.43%
19,Cc1nc2n(n1)C(c1ccccc1)C1=C(CC(c3ccco3)CC1=O)N2 (centres unmarked),11.4%
20,COc1ccc(CNC(=O)c2ccc3ccccc3n2)cc1OC,22.1%
21,COc1cccc(OC)c1NC(=O)C1CCCN1C(=O)Nc1cccc(Cl)c1 (centres unmarked),17.9%
22,CCNC(=S)N(CCCO)Cc1cc2cc3c(cc2[nH]c1=O)OCCO3,19.1%

# From publication PMC4336329 (PLoS ONE, 2015)
